{"source": "paper PMC5892938", "note": "The other results are listed elsewhere or left out. At the low end of the ranking the order means little."}
{"target": "GST-SBP-SLBP (stem-loop binding protein) (UniProt Q14493)", "experiment": "targeted RNA Bind-n-Seq;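 further: DESeq read counts versus GST-SBP nonspecific binding control pulldown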", "details": "RBNS binding buffer: 25 mM Tris pH 7.5, 150 mM KCl, 3 mM MgCl2, 0.1% Tween, 0.5 mg/mL BSA, 1 mM DTT; 27 nM protein, 750 pM RNA pool; temperature not stated; high values mean tight binding"}
{"sequence": "GGUCACGUCUCAAUCAACUCAAUCUCAGGAGUUUUCUCCUGCUAAGUCAACAGCUCGCAGUCAAG", "binding signal (log2 fold change)": 0.147}
{"sequence": "GGUCACGUCUCAAUCAACUCAUUUCCCAGGGAAAUCCCUGGUAUUUUCAACAGCUCGCAGUCAAG", "binding signal (log2 fold change)": 0.142}
{"sequence": "GGUCACGUCUCAAUCAACUCUUAAGAGGGGGGGAAAACCCCUUUACCCUCAUCUUCAACAGCUCGCAGUCAAG", "binding signal (log2 fold change)": 0.0525}
{"sequence": "GGUCACGUCUCAAUCAACUCCCCGGAGGGGGGGAAAACCCCUUUACCCUCAAAAUCAACAGCUCGCAGUCAAG", "binding signal (log2 fold change)": -0.105}
{"sequence": "GGUCACGUCUCAAUCAACUCAUCCCCAGGAGUUUUCUCCUGUAAAUUCAACAGCUCGCAGUCAAG", "binding signal (log2 fold change)": 0.213}
{"sequence": "GGUCACGUCUCAAUCAACUCAUUUUCAGGAGUUUGCUCCUGUUUACUCAACAGCUCGCAGUCAAG", "binding signal (log2 fold change)": 0.12}
{"sequence": "GGUCACGUCUCAAUCAACUCUUUCUCCAGGGAAAACCCUGGUUUUCUCAACAGCUCGCAGUCAAG", "binding signal (log2 fold change)": -0.224}
{"sequence": "GGUCACGUCUCAAUCAACUCAACUCCCAGGGAAAGCCCUGGCAUACUCAACAGCUCGCAGUCAAG", "binding signal (log2 fold change)": -0.313}
{"sequence": "GGUCACGUCUCAAUCAACUCUCAAGAGGGGGGGAAAACCCCUUUACCCUCCUAAUCAACAGCUCGCAGUCAAG", "binding signal (log2 fold change)": -0.215}
{"sequence": "GGUCACGUCUCAAUCAACUCUUUCCCCAGGGAAAUCCCUGGUAAUGUCAACAGCUCGCAGUCAAG", "binding signal (log2 fold change)": 0.176}
{"sequence": "GGUCACGUCUCAAUCAACUCUACUCCAGGAGUUUGCUCCUGCAUUUUCAACAGCUCGCAGUCAAG", "binding signal (log2 fold change)": 0.014}
{"sequence": "GGUCACGUCUCAAUCAACUCUAUCUCAGGAGUUUCCUCCUGUAUUCUCAACAGCUCGCAGUCAAG", "binding signal (log2 fold change)": 0.0212}
{"sequence": "GGUCACGUCUCAAUCAACUCAAUCUCCAGGGAAAGCCCUGGCAUAGUCAACAGCUCGCAGUCAAG", "binding signal (log2 fold change)": 0.0684}
{"sequence": "GGUCACGUCUCAAUCAACUCUUCUCCCAGGGAAAUCCCUGGUUAUGUCAACAGCUCGCAGUCAAG", "binding signal (log2 fold change)": -0.0391}
{"sequence": "GGUCACGUCUCAAUCAACUCCAAAGAGGGGGGGAAAACCCCUUUACCCUCCAAUUCAACAGCUCGCAGUCAAG", "binding signal (log2 fold change)": -0.268}
{"sequence": "GGUCACGUCUCAAUCAACUCCAUAGAGGGGGGGAAAACCCCUUUACCCUCGUCCUCAACAGCUCGCAGUCAAG", "binding signal (log2 fold change)": 0.2}
{"sequence": "GGUCACGUCUCAAUCAACUCAAUCUCAGGAGUUUUCUCCUGUAUAUUCAACAGCUCGCAGUCAAG", "binding signal (log2 fold change)": 0.144}
{"sequence": "GGUCACGUCUCAAUCAACUCCCUCGAGGGGGGGAAAACCCCUUUACCCUCUUUUUCAACAGCUCGCAGUCAAG", "binding signal (log2 fold change)": -0.134}
{"sequence": "GGUCACGUCUCAAUCAACUCUUUCUCCAGGGAAAACCCUGGCUUACUCAACAGCUCGCAGUCAAG", "binding signal (log2 fold change)": -0.234}
{"sequence": "GGUCACGUCUCAAUCAACUCAACUCCCAGGGAAAACCCUGGCUUAUUCAACAGCUCGCAGUCAAG", "binding signal (log2 fold change)": -0.0554}
